# Assay results taken from the supplement of paper PMC8728848.
# The other results are listed elsewhere or left out.
# B1: Gal 3 (Homo sapiens), P17931 (protein)
# chain: MADNFSLHDALSGSGNPNPQGWPGAWGNQPAGAGGYPGASYPGAYPGQAPPGAYPGQAPPGAYHGAPGAYPGAPAPGVYPGPPSGPGAYPSSGQPSAPGAYPATGPYGAPAGPLIVPYNLPLPGGVVPRMLITILGTVKPNANILDFQRGNDVAFHFNPRFNENNRRVIVCNTKLDNNWAREERQSVFPFESGKPFKIQVLVEPDHFKVAVNDAHLLQYNHRVKKLNEISKLGISGDIDLTSASYTMI
# Assays:
# Assay in all cases: glycan array binding signal (z-score within array); higher = stronger binding
# Conditions in all cases: glycan notation: IUPAC condensed, linker removed; mutation: G182A
# [1] = biological target: Gal(b1-4)GlcNAc(b1-3)Gal(b1-4)[Fuc(a1-3)]GlcNAc(b1-3)Gal(b1-4)[Fuc(a1-3)]GlcNAc
# Summary of the method: (§1)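 Negative Z-scores can be read as non-binding. The Z-score is calculated within each array and then averaged across arrays of one protein sequence at different concentrations or buffers and across linkers. Arrays, 3228 in all, were curated from the Consortium for Functional Glycomics database and kept only where the protein sequence was available.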
# [2] = biological target: Gal(b1-4)GlcNAc(b1-3)GalNAc
# Summary of the method: as §1
# [3] = biological target: Gal(b1-4)GlcNAc(b1-3)[Gal(b1-4)GlcNAc(b1-6)]Gal(b1-4)GlcNAc
# Summary of the method: as §1
# [4] = biological target: Gal(b1-4)GlcNAc(b1-3)[Gal(b1-4)GlcNAc(b1-6)]GalNAc
# Summary of the method: as §1
# [5] = biological target: Gal(b1-4)GlcNAc(b1-3)[GlcNAc(b1-6)]Gal(b1-4)GlcNAc
# Summary of the method: as §1
# [6] = biological target: Gal(b1-4)GlcNAc(b1-6)Gal(b1-4)GlcNAc
# Summary of the method: as §1
# [7] = biological target: Gal(b1-4)GlcNAc(b1-6)GalNAc
# Summary of the method: as §1
# [8] = biological target: Gal(b1-4)GlcNAc(b1-6)[Gal(b1-3)]GalNAc
# Summary of the method: as §1
# Gal3S(b1-3)GalNAc = biological target: Gal3S(b1-3)GalNAc
# Summary of the method: as §1
# Gal3S(b1-3)GlcNAc = biological target: Gal3S(b1-3)GlcNAc
# Summary of the method: as §1
# [9] = biological target: Gal3S(b1-3)[Fuc(a1-4)]GlcNAc
# Summary of the method: as §1
# Gal3S(b1-4)Glc = biological target: Gal3S(b1-4)Glc
# Summary of the method: as §1
# Gal3S(b1-4)Glc6S = biological target: Gal3S(b1-4)Glc6S
# Summary of the method: as §1
# Gal3S(b1-4)GlcNAc = biological target: Gal3S(b1-4)GlcNAc
# Summary of the method: as §1
# Gal3S(b1-4)GlcNAc6S = biological target: Gal3S(b1-4)GlcNAc6S
# Summary of the method: as §1
# [10] = biological target: Gal3S(b1-4)[Fuc(a1-3)]Glc
# Summary of the method: as §1
# [11] = biological target: Gal3S(b1-4)[Fuc(a1-3)]Glc6S
# Summary of the method: as §1
# Gal3S4S(b1-4)GlcNAc = biological target: Gal3S4S(b1-4)GlcNAc
# Summary of the method: as §1
# Gal3S6S(b1-4)GlcNAc = biological target: Gal3S6S(b1-4)GlcNAc
# Summary of the method: as §1
# Gal3S6S(b1-4)GlcNAc6S = biological target: Gal3S6S(b1-4)GlcNAc6S
# Summary of the method: as §1
# Gal4S(b1-4)GlcNAc = biological target: Gal4S(b1-4)GlcNAc
# Summary of the method: as §1
# Gal4S6S(b1-4)GlcNAc = biological target: Gal4S6S(b1-4)GlcNAc
# Summary of the method: as §1
# Gal6S(b1-4)Glc = biological target: Gal6S(b1-4)Glc
# Summary of the method: as §1
# Gal6S(b1-4)Glc6S = biological target: Gal6S(b1-4)Glc6S
# Summary of the method: as §1
# Gal6S(b1-4)GlcNAc = biological target: Gal6S(b1-4)GlcNAc
# Summary of the method: as §1
# Gal6S(b1-4)GlcNAc6S = biological target: Gal6S(b1-4)GlcNAc6S
# Summary of the method: as §1
# GalNAc(a1-3)Gal = biological target: GalNAc(a1-3)Gal
# Summary of the method: as §1
# GalNAc(a1-3)GalNAc = biological target: GalNAc(a1-3)GalNAc
# Summary of the method: as §1
# [12] = biological target: GalNAc(a1-3)GalNAc(a1-3)Gal(a1-4)Gal(b1-4)GlcNAc
# Summary of the method: as §1
# GalNAc(b1-3)Gal = biological target: GalNAc(b1-3)Gal
# Summary of the method: as §1
# [13] = biological target: GalNAc(b1-3)Gal(a1-4)Gal(b1-4)GlcNAc
# Summary of the method: as §1
# [14] = biological target: GalNAc(b1-3)Gal(a1-4)Gal(b1-4)GlcNAc(b1-3)Gal(b1-4)Glc
# Summary of the method: as §1
# [15] = biological target: GalNAc(b1-3)Gal(a1-6)Gal(b1-4)Glc
# Summary of the method: as §1
# GalNAc(b1-3)GalNAc = biological target: GalNAc(b1-3)GalNAc
# Summary of the method: as §1
# GalNAc(b1-4)GlcNAc = biological target: GalNAc(b1-4)GlcNAc
# Summary of the method: as §1
# [16] = biological target: GalNAc(b1-4)GlcNAc(b1-2)Man(a1-3)[GalNAc(b1-4)GlcNAc(b1-2)Man(a1-6)]Man(b1-4)GlcNAc(b1-4)GlcNAc
# Summary of the method: as §1
# Glc(a1-4)Glc = biological target: Glc(a1-4)Glc
# Summary of the method: as §1
# Glc(a1-6)Glc(a1-6)Glc = biological target: Glc(a1-6)Glc(a1-6)Glc
# Summary of the method: as §1
# Glc(b1-4)Glc = biological target: Glc(b1-4)Glc
# Summary of the method: as §1
# Glc(b1-6)Glc = biological target: Glc(b1-6)Glc
# Summary of the method: as §1
# GlcA(b1-3)Gal = biological target: GlcA(b1-3)Gal
# Summary of the method: as §1
# GlcA(b1-3)GlcNAc = biological target: GlcA(b1-3)GlcNAc
# Summary of the method: as §1
# GlcA(b1-6)Gal = biological target: GlcA(b1-6)Gal
# Summary of the method: as §1
# [17] = biological target: GlcNAc(a1-3)Gal(b1-4)GlcNAc
# Summary of the method: as §1
# [18] = biological target: GlcNAc(a1-4)Gal(b1-3)GlcNAc
# Summary of the method: as §1
binder,measurement,setting,value
B1,glycan array binding signal (z-score),[1],-0.192
same,glycan array binding signal (z-score),[2],-0.176
same,glycan array binding signal (z-score),[3],-0.163
same,glycan array binding signal (z-score),[4],-0.173
same,glycan array binding signal (z-score),[5],-0.188
same,glycan array binding signal (z-score),[6],-0.196
same,glycan array binding signal (z-score),[7],-0.19
same,glycan array binding signal (z-score),[8],-0.191
same,glycan array binding signal (z-score),Gal3S(b1-3)GalNAc,-0.183
same,glycan array binding signal (z-score),Gal3S(b1-3)GlcNAc,-0.061
same,glycan array binding signal (z-score),[9],-0.186
same,glycan array binding signal (z-score),Gal3S(b1-4)Glc,-0.181
same,glycan array binding signal (z-score),Gal3S(b1-4)Glc6S,-0.157
same,glycan array binding signal (z-score),Gal3S(b1-4)GlcNAc,-0.138
same,glycan array binding signal (z-score),Gal3S(b1-4)GlcNAc6S,0.037
same,glycan array binding signal (z-score),[10],-0.193
same,glycan array binding signal (z-score),[11],-0.181
same,glycan array binding signal (z-score),Gal3S4S(b1-4)GlcNAc,-0.192
same,glycan array binding signal (z-score),Gal3S6S(b1-4)GlcNAc,-0.196
same,glycan array binding signal (z-score),Gal3S6S(b1-4)GlcNAc6S,-0.184
same,glycan array binding signal (z-score),Gal4S(b1-4)GlcNAc,-0.19
same,glycan array binding signal (z-score),Gal4S6S(b1-4)GlcNAc,-0.193
same,glycan array binding signal (z-score),Gal6S(b1-4)Glc,-0.182
same,glycan array binding signal (z-score),Gal6S(b1-4)Glc6S,-0.167
same,glycan array binding signal (z-score),Gal6S(b1-4)GlcNAc,-0.187
same,glycan array binding signal (z-score),Gal6S(b1-4)GlcNAc6S,-0.185
same,glycan array binding signal (z-score),GalNAc(a1-3)Gal,-0.192
same,glycan array binding signal (z-score),GalNAc(a1-3)GalNAc,-0.19
same,glycan array binding signal (z-score),[12],-0.195
same,glycan array binding signal (z-score),GalNAc(b1-3)Gal,-0.186
same,glycan array binding signal (z-score),[13],-0.198
same,glycan array binding signal (z-score),[14],-0.172
same,glycan array binding signal (z-score),[15],-0.19
same,glycan array binding signal (z-score),GalNAc(b1-3)GalNAc,-0.193
same,glycan array binding signal (z-score),GalNAc(b1-4)GlcNAc,-0.192
same,glycan array binding signal (z-score),[16],-0.173
same,glycan array binding signal (z-score),Glc(a1-4)Glc,-0.194
same,glycan array binding signal (z-score),Glc(a1-6)Glc(a1-6)Glc,-0.194
same,glycan array binding signal (z-score),Glc(b1-4)Glc,-0.191
same,glycan array binding signal (z-score),Glc(b1-6)Glc,-0.191
same,glycan array binding signal (z-score),GlcA(b1-3)Gal,-0.173
same,glycan array binding signal (z-score),GlcA(b1-3)GlcNAc,-0.192
same,glycan array binding signal (z-score),GlcA(b1-6)Gal,-0.191
same,glycan array binding signal (z-score),[17],-0.194
same,glycan array binding signal (z-score),[18],-0.185
